Data reported in a collection of fitness landscapes (doi:10.1016/j.celrep.2020.107928).
Over roughly 81,000 sequences, “one-hybrid fitness for binding NBS DNA” has its median near -0.1; the highest 2% begin near 0.36. The list shows a part of the results.

B1: Caulobacter ParB omega fusion; a variant is named by its letters at X, in order, B8GW30 (parent)
chain: MESVVVGEPGMSEGRRGLGRGLSALLGEVDAAPAQAPGEQLGGSREAPIEILQRNPDQPRRTFREEDLEDLSNSIREKGVLQPILVRPSPDTAGEYQIVAGERAWRAAQRAGLKTVPIMVRELDDLAVLEIGIIENVQRADLNVLEEALSYKVLMEKFERTQENIAQTIGKSXSHVANXMRLLXLPDEVQSYLVSGELTAXHARAIAAAADPVALAKQIIEGGLSVRETEALARKAPNLSAGKSKGGRPPRVKDTDTQALESDLSSVLGLDVSIDHRGSTGTLTITYATLEQLDDLCNRLTRGI

Variants of: B1
Assay: one-hybrid fitness for binding NBS DNA (the Noc-binding site; scaled: cognate 1, non-cognate 0); higher = stronger binding
Settings: with NBS DNA site
Method in brief: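 Caulobacter ParB libraries with four specificity codons randomised were screened by bacterial one-hybrid selection in the E. coli USO strain, using a HIS3 reporter whose site lies 19 bp from the promoter. Selection ran for 48 hours at 37°C on M9 lacking histidine, with 0.1 mM IPTG and 5 mM 3-AT. Plasmids were Illumina-sequenced before and after selection, three replicate libraries were pooled, and variants with under 10 reads were dropped. Fitness is the log change in each variant's read ratio to wild type, rescaled against the cognate and non-cognate sites.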

Variant | one-hybrid fitness for binding NBS DNA
HDED | ≤ 0.2
SCAM | ≤ 0.2
HRIS | ≤ 0.2
CPLG | ≤ 0.2
YGFR | ≤ 0.2
QFLY | ≤ 0.2
AWWS | ≤ 0.2
CKGR | ≤ 0.2
QPNK | ≤ 0.2
DAGE | ≤ 0.2
FNDR | ≤ 0.2
YVLM | ≤ 0.2
RRDK | ≤ 0.2
YRSR | ≤ 0.2
LPPS | ≤ 0.2
GGSK | ≤ 0.2
KQFS | ≤ 0.2
PLPA | ≤ 0.2
SHVT | ≤ 0.2
QMRG | 0.391
INML | ≤ 0.2
KDAG | ≤ 0.2
TQNM | ≤ 0.2
GYKS | ≤ 0.2

Variant | one-hybrid fitness for binding NBS DNA
PAHN | ≤ 0.2
ISNR | ≤ 0.2
TIDD | ≤ 0.2
RYNV | ≤ 0.2
EKCT | ≤ 0.2
PTCI | ≤ 0.2
PGGN | ≤ 0.2
RGGM | ≤ 0.2
GHQD | ≤ 0.2
TCKN | ≤ 0.2
GVGP | ≤ 0.2
PSHA | ≤ 0.2
QTIF | ≤ 0.2
IWMG | ≤ 0.2
IVNR | ≤ 0.2
RTCL | ≤ 0.2
GRPV | ≤ 0.2
YRTD | ≤ 0.2
PTWD | ≤ 0.2
PLVP | ≤ 0.2
MRKP | ≤ 0.2
NQFT | ≤ 0.2
NAKL | ≤ 0.2
AVGN | ≤ 0.2

Variant | one-hybrid fitness for binding NBS DNA
TCAR | ≤ 0.2
LLEG | ≤ 0.2
NLHG | ≤ 0.2
LWLM | ≤ 0.2
HTSY | ≤ 0.2
HILE | ≤ 0.2
RHWH | ≤ 0.2
RWAF | ≤ 0.2
INCS | ≤ 0.2
MSLC | ≤ 0.2
HTKY | ≤ 0.2
TAPE | ≤ 0.2
QLLD | ≤ 0.2
AVSA | ≤ 0.2
RSLP | ≤ 0.2
QAKF | 0.261
CHAH | ≤ 0.2
EKEV | ≤ 0.2
ERKP | ≤ 0.2
VKLC | ≤ 0.2
VTGG | ≤ 0.2
ALRA | ≤ 0.2
RNVD | ≤ 0.2
HIHL | ≤ 0.2

Variant | one-hybrid fitness for binding NBS DNA
HSKR | ≤ 0.2
GVSL | ≤ 0.2
NWTA | ≤ 0.2
CNTW | ≤ 0.2
NRWT | ≤ 0.2
SSYE | ≤ 0.2
LNST | ≤ 0.2
IVLN | ≤ 0.2
DGRT | ≤ 0.2
RFKL | ≤ 0.2
LQTG | ≤ 0.2
TYGT | ≤ 0.2
IDSL | ≤ 0.2
HPER | ≤ 0.2
RVNN | ≤ 0.2
RGYM | ≤ 0.2
KWSM | ≤ 0.2
AHTM | ≤ 0.2
HLPT | ≤ 0.2
PWLA | ≤ 0.2
GRSW | ≤ 0.2
EPSG | ≤ 0.2
ADQR | ≤ 0.2
QRMR | 0.971

Variant | one-hybrid fitness for binding NBS DNA
HIKL | ≤ 0.2
QTMK | ≤ 0.2
HLCL | ≤ 0.2
CPKM | ≤ 0.2
LAMM | ≤ 0.2
LAAT | ≤ 0.2
PWAT | ≤ 0.2
QHDS | ≤ 0.2
GGPY | ≤ 0.2
PSAC | ≤ 0.2
VWDG | ≤ 0.2
CVSR | ≤ 0.2
NLPN | ≤ 0.2
SWPP | ≤ 0.2
SYNE | ≤ 0.2
MVIC | ≤ 0.2
VSIV | ≤ 0.2
REVY | ≤ 0.2
MQGF | ≤ 0.2
TACF | ≤ 0.2
SSDP | ≤ 0.2
QWRF | ≤ 0.2
RGII | ≤ 0.2
YYSP | ≤ 0.2

Variant | one-hybrid fitness for binding NBS DNA
MLTK | ≤ 0.2
RCIA | ≤ 0.2
LLRS | ≤ 0.2
FTRT | ≤ 0.2
PYRC | ≤ 0.2
THAD | ≤ 0.2
EIFS | ≤ 0.2
VQST | ≤ 0.2
KSQH | ≤ 0.2
NTPG | ≤ 0.2
LLIM | ≤ 0.2
MPFK | ≤ 0.2
FYTG | ≤ 0.2
HIFY | ≤ 0.2
AICT | ≤ 0.2
ISPS | ≤ 0.2
QAMN | ≤ 0.2
RFEN | ≤ 0.2
QIRQ | 0.296
QGSN | ≤ 0.2
PLDS | ≤ 0.2
CCAK | ≤ 0.2
QTEE | ≤ 0.2
YYRE | ≤ 0.2

Variant | one-hybrid fitness for binding NBS DNA
GDKT | ≤ 0.2
NTRH | ≤ 0.2
AVFD | ≤ 0.2
DERT | ≤ 0.2
RMSE | ≤ 0.2
VPKT | ≤ 0.2
VPAT | ≤ 0.2
AWSH | ≤ 0.2
PHSP | ≤ 0.2
NEWR | ≤ 0.2
ISKI | ≤ 0.2
SVGK | ≤ 0.2
MASR | ≤ 0.2
YRFY | ≤ 0.2
MYHV | ≤ 0.2
WFRG | ≤ 0.2
ESQH | ≤ 0.2
YAPF | ≤ 0.2
DISW | ≤ 0.2
PTMF | ≤ 0.2
CRDT | ≤ 0.2
QKIA | 0.228
PCYS | ≤ 0.2
DLMC | ≤ 0.2

Variant | one-hybrid fitness for binding NBS DNA
YSKR | ≤ 0.2
WRNC | ≤ 0.2
RFRC | ≤ 0.2
RDPK | ≤ 0.2
ISMS | ≤ 0.2
HYWT | ≤ 0.2
ITLG | ≤ 0.2
HQTL | ≤ 0.2
QIVR | 0.271
DASY | ≤ 0.2
KLLD | ≤ 0.2
DPFR | ≤ 0.2
FQTS | ≤ 0.2
TLQM | ≤ 0.2
FSRK | ≤ 0.2
RWFN | ≤ 0.2
IRKC | ≤ 0.2
GRAM | ≤ 0.2
TWII | ≤ 0.2
SRFV | ≤ 0.2
AEQR | ≤ 0.2
RDRR | ≤ 0.2
SRMC | ≤ 0.2
NSIA | ≤ 0.2

Variant | one-hybrid fitness for binding NBS DNA
DQPW | ≤ 0.2
REFV | ≤ 0.2
RKEM | ≤ 0.2
AWSY | ≤ 0.2
KYHT | ≤ 0.2
NFTR | ≤ 0.2
MACV | ≤ 0.2
NPKS | ≤ 0.2
CGAT | 0.244
YSCR | ≤ 0.2
GIWT | ≤ 0.2
KTRM | ≤ 0.2
PVRG | ≤ 0.2
PESF | ≤ 0.2
PQMI | ≤ 0.2
INQF | ≤ 0.2
RCHT | 0.538
MVPA | ≤ 0.2
HNMV | ≤ 0.2
WMIT | ≤ 0.2
SKLH | ≤ 0.2
RHHH | ≤ 0.2
RMWD | ≤ 0.2
NDYF | ≤ 0.2

Variant | one-hybrid fitness for binding NBS DNA
FPGV | ≤ 0.2
SYSN | ≤ 0.2
TIGT | ≤ 0.2
FTKG | ≤ 0.2
AEAR | ≤ 0.2
YTKV | ≤ 0.2
RNAI | ≤ 0.2
ADLY | ≤ 0.2
HMFT | ≤ 0.2
VVHA | ≤ 0.2
ATCV | ≤ 0.2
DMLL | ≤ 0.2
SPAD | ≤ 0.2
VLSF | ≤ 0.2
KMTG | ≤ 0.2
PERM | ≤ 0.2
CRLT | ≤ 0.2
FNPG | ≤ 0.2
SLVF | ≤ 0.2
NVST | ≤ 0.2
PSKT | ≤ 0.2
RMQC | ≤ 0.2
RAQP | ≤ 0.2
HGML | ≤ 0.2

Variant | one-hybrid fitness for binding NBS DNA
RGPY | ≤ 0.2
KTLM | ≤ 0.2
PPAD | ≤ 0.2
KARR | 0.347
PISL | ≤ 0.2
ARNK | ≤ 0.2
MPLH | ≤ 0.2
SENC | ≤ 0.2
GNPA | ≤ 0.2
HMVY | ≤ 0.2
QSRD | 0.219
RTVG | ≤ 0.2
YKFV | ≤ 0.2
FSYG | ≤ 0.2
QQRV | 0.493
YSHN | ≤ 0.2
VYAW | ≤ 0.2
IIKT | ≤ 0.2
SAHM | ≤ 0.2
IHNV | ≤ 0.2
PCDG | ≤ 0.2
FFYG | ≤ 0.2
QKTW | ≤ 0.2
FRRW | ≤ 0.2

Variant | one-hybrid fitness for binding NBS DNA
GHNQ | ≤ 0.2
RHMS | 0.386
LYCL | ≤ 0.2
INTF | ≤ 0.2
QALQ | ≤ 0.2
QCTG | ≤ 0.2
SPTC | ≤ 0.2
HDVL | ≤ 0.2
TIRN | ≤ 0.2
IYHD | ≤ 0.2
DQRS | ≤ 0.2
MSGT | ≤ 0.2
CIEY | ≤ 0.2
RWSV | ≤ 0.2
GSCI | ≤ 0.2
LPHC | ≤ 0.2
QNCG | ≤ 0.2
QVAS | 0.235
KRTE | ≤ 0.2
YENT | ≤ 0.2
IQNI | ≤ 0.2
CKSV | ≤ 0.2
YEMA | ≤ 0.2
LNIY | ≤ 0.2

Variant | one-hybrid fitness for binding NBS DNA
AAKN | ≤ 0.2
ETLA | ≤ 0.2
NSII | ≤ 0.2
LAIN | ≤ 0.2
QHPP | ≤ 0.2
WHSI | ≤ 0.2
TANT | ≤ 0.2
NEPS | ≤ 0.2
CGCN | ≤ 0.2
HSLN | ≤ 0.2
PWRC | ≤ 0.2
DDNS | ≤ 0.2
YGAY | ≤ 0.2
QSIQ | ≤ 0.2
VLHK | ≤ 0.2
HRGG | ≤ 0.2
IVIT | ≤ 0.2
SPPK | ≤ 0.2
